Data: paper PMC9388692, “Nuclear import of PTPN18 inhibits breast cancer metastasis mediated by MVP and importin β2” (Cell Death & Disease, 2022)
No constants are given. Whether binding was seen depends on the method and setting. Binding seen in cells or lysates may run through a third protein. Some results given as binding are weak or reduced against the parent protein; the word gives no strength. For some assays here: Where a sequence is shown, tags or fusion partners need not be part of it. Each block holds one molecule with its values, some of them ahead of it.

Amino acid sequences for entries named in this document (tags omitted). A change or cut given only in a name is not applied to a line headed by its entry. Chains listed by the source or under a name are the forms on record and can include a tag or linker.
UniProt Q14764: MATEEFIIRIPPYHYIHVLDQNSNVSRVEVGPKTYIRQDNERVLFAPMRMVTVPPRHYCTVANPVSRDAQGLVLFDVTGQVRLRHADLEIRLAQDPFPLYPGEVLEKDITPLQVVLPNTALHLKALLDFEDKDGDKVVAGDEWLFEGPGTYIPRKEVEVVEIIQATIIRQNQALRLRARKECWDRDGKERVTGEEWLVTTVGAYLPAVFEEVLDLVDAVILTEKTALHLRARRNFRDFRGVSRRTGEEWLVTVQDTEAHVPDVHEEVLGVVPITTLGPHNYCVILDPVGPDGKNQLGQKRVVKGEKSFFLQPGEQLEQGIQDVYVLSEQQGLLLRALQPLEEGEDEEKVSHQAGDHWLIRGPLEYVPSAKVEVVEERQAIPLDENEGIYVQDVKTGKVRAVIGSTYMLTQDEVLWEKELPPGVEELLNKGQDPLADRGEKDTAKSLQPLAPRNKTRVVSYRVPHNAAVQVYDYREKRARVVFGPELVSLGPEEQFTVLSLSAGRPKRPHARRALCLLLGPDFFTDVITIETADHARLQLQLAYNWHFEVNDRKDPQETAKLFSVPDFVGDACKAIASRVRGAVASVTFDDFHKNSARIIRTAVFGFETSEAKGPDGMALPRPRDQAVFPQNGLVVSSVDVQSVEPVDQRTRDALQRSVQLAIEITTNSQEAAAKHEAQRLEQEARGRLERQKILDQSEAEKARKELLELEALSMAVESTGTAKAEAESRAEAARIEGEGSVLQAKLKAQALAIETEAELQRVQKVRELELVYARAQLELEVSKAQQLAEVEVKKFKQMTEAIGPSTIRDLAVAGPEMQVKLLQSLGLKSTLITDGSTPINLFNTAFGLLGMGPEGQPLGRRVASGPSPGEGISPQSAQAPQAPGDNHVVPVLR
Flag-MVP EA/TA mutant (Q14764, form named): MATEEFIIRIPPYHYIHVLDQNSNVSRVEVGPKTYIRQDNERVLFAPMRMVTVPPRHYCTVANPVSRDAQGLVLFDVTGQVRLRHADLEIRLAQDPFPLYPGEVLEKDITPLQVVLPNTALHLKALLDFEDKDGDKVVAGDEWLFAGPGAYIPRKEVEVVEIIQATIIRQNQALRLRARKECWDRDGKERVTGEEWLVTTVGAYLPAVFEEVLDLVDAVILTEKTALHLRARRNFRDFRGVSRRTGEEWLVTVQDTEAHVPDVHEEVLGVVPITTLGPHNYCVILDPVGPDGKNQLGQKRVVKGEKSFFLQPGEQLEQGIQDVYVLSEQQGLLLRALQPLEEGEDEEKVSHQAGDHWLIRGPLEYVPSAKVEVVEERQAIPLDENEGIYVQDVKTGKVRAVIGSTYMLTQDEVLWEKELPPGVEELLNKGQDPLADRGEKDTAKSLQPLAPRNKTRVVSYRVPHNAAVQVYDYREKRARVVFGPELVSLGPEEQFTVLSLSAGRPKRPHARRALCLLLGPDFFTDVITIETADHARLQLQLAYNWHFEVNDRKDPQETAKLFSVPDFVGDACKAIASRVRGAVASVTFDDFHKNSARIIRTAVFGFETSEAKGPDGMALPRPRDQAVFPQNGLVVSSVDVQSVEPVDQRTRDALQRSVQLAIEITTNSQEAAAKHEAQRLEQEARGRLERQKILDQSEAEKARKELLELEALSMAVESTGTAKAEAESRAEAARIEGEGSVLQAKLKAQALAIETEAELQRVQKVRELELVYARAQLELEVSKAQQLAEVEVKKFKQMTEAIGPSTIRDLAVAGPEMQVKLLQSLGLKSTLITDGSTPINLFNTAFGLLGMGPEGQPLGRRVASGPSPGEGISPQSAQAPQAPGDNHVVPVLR
UniProt Q14974: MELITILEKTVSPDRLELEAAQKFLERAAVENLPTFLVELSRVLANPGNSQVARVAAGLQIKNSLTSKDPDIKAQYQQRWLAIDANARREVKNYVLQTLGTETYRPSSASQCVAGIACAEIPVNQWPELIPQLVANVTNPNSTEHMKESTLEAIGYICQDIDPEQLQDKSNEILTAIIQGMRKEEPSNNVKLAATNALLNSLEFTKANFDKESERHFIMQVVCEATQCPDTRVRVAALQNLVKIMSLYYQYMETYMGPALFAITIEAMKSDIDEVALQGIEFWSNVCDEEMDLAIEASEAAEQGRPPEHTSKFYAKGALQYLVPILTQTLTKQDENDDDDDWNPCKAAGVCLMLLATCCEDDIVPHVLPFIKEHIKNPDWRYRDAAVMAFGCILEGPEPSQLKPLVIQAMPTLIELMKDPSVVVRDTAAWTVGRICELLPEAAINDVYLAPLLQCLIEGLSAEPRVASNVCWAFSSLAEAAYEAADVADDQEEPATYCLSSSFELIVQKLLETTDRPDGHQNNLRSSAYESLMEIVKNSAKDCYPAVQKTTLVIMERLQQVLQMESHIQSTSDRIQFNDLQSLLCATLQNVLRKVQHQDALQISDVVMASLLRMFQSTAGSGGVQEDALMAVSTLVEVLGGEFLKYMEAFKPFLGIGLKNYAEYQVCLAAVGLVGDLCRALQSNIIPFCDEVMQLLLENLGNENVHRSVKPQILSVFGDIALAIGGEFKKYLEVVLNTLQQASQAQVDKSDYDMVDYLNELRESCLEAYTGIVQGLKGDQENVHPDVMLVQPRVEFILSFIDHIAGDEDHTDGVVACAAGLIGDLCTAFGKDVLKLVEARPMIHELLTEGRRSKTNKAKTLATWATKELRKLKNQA
UniProt Q92973: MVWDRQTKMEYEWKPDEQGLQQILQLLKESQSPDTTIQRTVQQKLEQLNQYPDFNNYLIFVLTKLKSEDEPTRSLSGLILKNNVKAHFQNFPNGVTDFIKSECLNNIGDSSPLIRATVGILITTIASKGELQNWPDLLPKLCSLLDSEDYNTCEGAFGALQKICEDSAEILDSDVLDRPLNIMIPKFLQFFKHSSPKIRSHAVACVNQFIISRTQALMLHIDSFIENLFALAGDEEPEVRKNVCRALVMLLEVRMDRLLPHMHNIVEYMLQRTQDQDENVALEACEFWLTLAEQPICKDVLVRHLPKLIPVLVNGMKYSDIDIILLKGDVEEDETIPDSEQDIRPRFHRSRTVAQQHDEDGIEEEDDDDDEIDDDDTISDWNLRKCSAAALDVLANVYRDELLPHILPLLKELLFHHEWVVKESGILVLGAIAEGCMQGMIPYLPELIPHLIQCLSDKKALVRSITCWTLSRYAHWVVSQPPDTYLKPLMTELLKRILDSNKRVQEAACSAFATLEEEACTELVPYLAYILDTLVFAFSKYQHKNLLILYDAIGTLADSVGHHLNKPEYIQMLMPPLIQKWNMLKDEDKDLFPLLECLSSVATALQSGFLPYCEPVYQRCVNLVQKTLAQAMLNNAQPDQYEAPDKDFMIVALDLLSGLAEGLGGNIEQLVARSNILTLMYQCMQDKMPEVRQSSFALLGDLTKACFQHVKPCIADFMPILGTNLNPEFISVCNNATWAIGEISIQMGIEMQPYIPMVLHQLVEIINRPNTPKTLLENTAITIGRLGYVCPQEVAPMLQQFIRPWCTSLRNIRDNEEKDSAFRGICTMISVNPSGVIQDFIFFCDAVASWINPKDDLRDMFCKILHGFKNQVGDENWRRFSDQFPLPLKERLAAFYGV

Columns and labels:
[1] = target: T1, ectopic PTPN18 (co-IP of Fig. 1D) (UniProt Q99952); experiment: co-IP; ectopic tagged proteins in 293T cells, lysed 48 h after transfection in RIPA buffer, primary antibody overnight at 4 °C, protein A/G agarose, western blot
T1 sequence: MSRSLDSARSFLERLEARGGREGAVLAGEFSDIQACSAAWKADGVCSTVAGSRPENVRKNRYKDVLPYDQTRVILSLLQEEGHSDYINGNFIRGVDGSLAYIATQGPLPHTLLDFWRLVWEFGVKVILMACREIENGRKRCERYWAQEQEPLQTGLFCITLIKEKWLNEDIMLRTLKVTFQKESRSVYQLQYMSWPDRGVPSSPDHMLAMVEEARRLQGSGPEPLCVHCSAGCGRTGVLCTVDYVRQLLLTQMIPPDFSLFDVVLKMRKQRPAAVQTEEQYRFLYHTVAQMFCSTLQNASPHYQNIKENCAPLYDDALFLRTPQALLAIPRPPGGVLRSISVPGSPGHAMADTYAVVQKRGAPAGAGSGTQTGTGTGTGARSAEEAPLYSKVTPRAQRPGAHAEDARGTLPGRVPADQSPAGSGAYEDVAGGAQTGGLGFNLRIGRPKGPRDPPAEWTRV

[2] = target: T2, PTPN18 (endogenous) (human (endogenous in MCF7 and T-47D)) (UniProt Q99952); experiment: co-IP; endogenous proteins, lysates of MCF7 and T-47D cells in RIPA buffer, primary antibody overnight at 4 °C, protein A/G agarose, western blot
T2 sequence: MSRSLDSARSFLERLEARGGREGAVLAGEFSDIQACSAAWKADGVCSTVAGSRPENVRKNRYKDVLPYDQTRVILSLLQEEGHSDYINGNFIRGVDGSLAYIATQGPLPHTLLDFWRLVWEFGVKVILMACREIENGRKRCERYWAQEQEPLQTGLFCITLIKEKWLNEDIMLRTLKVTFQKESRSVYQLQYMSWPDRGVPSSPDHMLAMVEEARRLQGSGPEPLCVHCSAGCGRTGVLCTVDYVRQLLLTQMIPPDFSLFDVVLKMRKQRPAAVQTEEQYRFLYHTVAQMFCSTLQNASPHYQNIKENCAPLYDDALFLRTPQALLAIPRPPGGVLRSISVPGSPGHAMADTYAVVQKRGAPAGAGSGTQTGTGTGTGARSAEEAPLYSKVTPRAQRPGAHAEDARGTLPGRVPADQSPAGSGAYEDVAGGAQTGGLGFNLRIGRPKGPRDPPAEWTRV

Flag-MVP = Flag-MVP (UniProt Q14764); experiment: co-IP; ectopic tagged proteins in 293T cells, lysed 48 h after transfection in RIPA buffer, primary antibody overnight at 4 °C, protein A/G agarose, western blot
importin β1 = importin β1 (UniProt Q14974); experiment: co-IP; PTPN18 and members of the importin family; cells and constructs not stated
[3] = target: importin β2 (co-IP, Fig. 3D) (UniProt Q92973); experiment: as above
importin β3 = target: T3, importin β3 (UniProt O00410); experiment: as above
T3 sequence: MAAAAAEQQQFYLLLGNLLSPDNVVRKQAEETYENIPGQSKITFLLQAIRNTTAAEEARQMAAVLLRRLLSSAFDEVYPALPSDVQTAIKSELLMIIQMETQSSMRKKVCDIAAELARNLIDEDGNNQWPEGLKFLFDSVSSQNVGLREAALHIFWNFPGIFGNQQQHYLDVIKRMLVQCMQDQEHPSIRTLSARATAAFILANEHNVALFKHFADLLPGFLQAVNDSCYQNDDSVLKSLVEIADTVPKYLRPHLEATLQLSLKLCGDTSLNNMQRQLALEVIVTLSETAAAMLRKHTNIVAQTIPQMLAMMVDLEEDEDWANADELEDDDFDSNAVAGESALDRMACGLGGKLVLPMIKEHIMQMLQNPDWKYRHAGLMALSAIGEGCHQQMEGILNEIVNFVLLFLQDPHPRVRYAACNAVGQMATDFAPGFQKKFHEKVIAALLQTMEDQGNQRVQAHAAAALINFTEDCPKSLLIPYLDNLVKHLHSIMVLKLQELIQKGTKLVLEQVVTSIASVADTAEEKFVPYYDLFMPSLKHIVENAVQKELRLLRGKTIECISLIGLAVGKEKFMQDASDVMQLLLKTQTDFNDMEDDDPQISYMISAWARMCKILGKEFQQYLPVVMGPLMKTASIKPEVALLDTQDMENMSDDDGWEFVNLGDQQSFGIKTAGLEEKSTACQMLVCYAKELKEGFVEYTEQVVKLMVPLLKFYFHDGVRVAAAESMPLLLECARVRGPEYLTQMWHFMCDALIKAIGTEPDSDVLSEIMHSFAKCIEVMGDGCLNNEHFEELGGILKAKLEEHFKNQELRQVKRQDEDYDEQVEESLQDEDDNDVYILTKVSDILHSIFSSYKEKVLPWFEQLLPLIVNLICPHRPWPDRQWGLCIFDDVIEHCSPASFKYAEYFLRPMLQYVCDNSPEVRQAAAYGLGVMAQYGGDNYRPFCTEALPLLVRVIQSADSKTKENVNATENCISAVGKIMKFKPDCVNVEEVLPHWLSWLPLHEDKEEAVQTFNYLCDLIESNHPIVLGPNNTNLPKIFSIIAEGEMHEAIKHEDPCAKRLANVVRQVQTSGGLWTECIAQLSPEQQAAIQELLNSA

Flag-MVP EA/TA mutant = Flag-MVP EA/TA mutant (UniProt Q14764); experiment: co-IP; ectopic tagged proteins in 293T cells, lysed 48 h after transfection in RIPA buffer, primary antibody overnight at 4 °C, protein A/G agarose, western blot
[4] = target: ectopic MVP (co-IP of Fig. 1D) (UniProt Q14764); experiment: as above
[5] = target: MVP (endogenous) (human (endogenous in MCF7 and T-47D)) (UniProt Q14764); experiment: co-IP; endogenous proteins, lysates of MCF7 and T-47D cells in RIPA buffer, primary antibody overnight at 4 °C, protein A/G agarose, western blot

Molecule: MVP (endogenous) (from UniProt Q14764 1-893)
- binding [2]: binds

B2: PTPN18-GFP ΔpNLS1 (protein, UniProt Q99952)
chain: MSRSLDSARSFLERLEARGGREGAVLAGEFSDIQACSAAWKADGVCSTVAGSRPENVNFIRGVDGSLAYIATQGPLPHTLLDFWRLVWEFGVKVILMACREIENGRKRCERYWAQEQEPLQTGLFCITLIKEKWLNEDIMLRTLKVTFQKESRSVYQLQYMSWPDRGVPSSPDHMLAMVEEARRLQGSGPEPLCVHCSAGCGRTGVLCTVDYVRQLLLTQMIPPDFSLFDVVLKMRKQRPAAVQTEEQYRFLYHTVAQMFCSTLQNASPHYQNIKENCAPLYDDALFLRTPQALLAIPRPPGGVLRSISVPGSPGHAMADTYAVVQKRGAPAGAGSGTQTGTGTGTGARSAEEAPLYSKVTPRAQRPGAHAEDARGTLPGRVPADQSPAGSGAYEDVAGGAQTGGLGFNLRIGRPKGPRDPPAEWTRV
- binding (Flag-MVP): binds

B4: HA-PTPN18 (protein, UniProt Q99952 1-460)
chain: MSRSLDSARSFLERLEARGGREGAVLAGEFSDIQACSAAWKADGVCSTVAGSRPENVRKNRYKDVLPYDQTRVILSLLQEEGHSDYINGNFIRGVDGSLAYIATQGPLPHTLLDFWRLVWEFGVKVILMACREIENGRKRCERYWAQEQEPLQTGLFCITLIKEKWLNEDIMLRTLKVTFQKESRSVYQLQYMSWPDRGVPSSPDHMLAMVEEARRLQGSGPEPLCVHCSAGCGRTGVLCTVDYVRQLLLTQMIPPDFSLFDVVLKMRKQRPAAVQTEEQYRFLYHTVAQMFCSTLQNASPHYQNIKENCAPLYDDALFLRTPQALLAIPRPPGGVLRSISVPGSPGHAMADTYAVVQKRGAPAGAGSGTQTGTGTGTGARSAEEAPLYSKVTPRAQRPGAHAEDARGTLPGRVPADQSPAGSGAYEDVAGGAQTGGLGFNLRIGRPKGPRDPPAEWTRV
- binding (Flag-MVP EA/TA mutant): no binding

B5: PTPN18-GFP WT (protein, UniProt Q99952 1-460)
chain: MSRSLDSARSFLERLEARGGREGAVLAGEFSDIQACSAAWKADGVCSTVAGSRPENVRKNRYKDVLPYDQTRVILSLLQEEGHSDYINGNFIRGVDGSLAYIATQGPLPHTLLDFWRLVWEFGVKVILMACREIENGRKRCERYWAQEQEPLQTGLFCITLIKEKWLNEDIMLRTLKVTFQKESRSVYQLQYMSWPDRGVPSSPDHMLAMVEEARRLQGSGPEPLCVHCSAGCGRTGVLCTVDYVRQLLLTQMIPPDFSLFDVVLKMRKQRPAAVQTEEQYRFLYHTVAQMFCSTLQNASPHYQNIKENCAPLYDDALFLRTPQALLAIPRPPGGVLRSISVPGSPGHAMADTYAVVQKRGAPAGAGSGTQTGTGTGTGARSAEEAPLYSKVTPRAQRPGAHAEDARGTLPGRVPADQSPAGSGAYEDVAGGAQTGGLGFNLRIGRPKGPRDPPAEWTRV
- binding (Flag-MVP): binds

B6: ectopic PTPN18 (co-IP of Fig. 1D) (protein, UniProt Q99952 1-460)
chain: MSRSLDSARSFLERLEARGGREGAVLAGEFSDIQACSAAWKADGVCSTVAGSRPENVRKNRYKDVLPYDQTRVILSLLQEEGHSDYINGNFIRGVDGSLAYIATQGPLPHTLLDFWRLVWEFGVKVILMACREIENGRKRCERYWAQEQEPLQTGLFCITLIKEKWLNEDIMLRTLKVTFQKESRSVYQLQYMSWPDRGVPSSPDHMLAMVEEARRLQGSGPEPLCVHCSAGCGRTGVLCTVDYVRQLLLTQMIPPDFSLFDVVLKMRKQRPAAVQTEEQYRFLYHTVAQMFCSTLQNASPHYQNIKENCAPLYDDALFLRTPQALLAIPRPPGGVLRSISVPGSPGHAMADTYAVVQKRGAPAGAGSGTQTGTGTGTGARSAEEAPLYSKVTPRAQRPGAHAEDARGTLPGRVPADQSPAGSGAYEDVAGGAQTGGLGFNLRIGRPKGPRDPPAEWTRV
- binding [4]: binds

B7: PTPN18 (endogenous) (protein, UniProt Q99952 1-460)
chain: MSRSLDSARSFLERLEARGGREGAVLAGEFSDIQACSAAWKADGVCSTVAGSRPENVRKNRYKDVLPYDQTRVILSLLQEEGHSDYINGNFIRGVDGSLAYIATQGPLPHTLLDFWRLVWEFGVKVILMACREIENGRKRCERYWAQEQEPLQTGLFCITLIKEKWLNEDIMLRTLKVTFQKESRSVYQLQYMSWPDRGVPSSPDHMLAMVEEARRLQGSGPEPLCVHCSAGCGRTGVLCTVDYVRQLLLTQMIPPDFSLFDVVLKMRKQRPAAVQTEEQYRFLYHTVAQMFCSTLQNASPHYQNIKENCAPLYDDALFLRTPQALLAIPRPPGGVLRSISVPGSPGHAMADTYAVVQKRGAPAGAGSGTQTGTGTGTGARSAEEAPLYSKVTPRAQRPGAHAEDARGTLPGRVPADQSPAGSGAYEDVAGGAQTGGLGFNLRIGRPKGPRDPPAEWTRV
- binding [5]: binds

More lines, now with the values ahead:

- binding [1]: binds
Molecule: ectopic MVP (co-IP of Fig. 1D) (from UniProt Q14764 1-893)

- binding (Flag-MVP): no binding
B1: PTPN18-GFP ΔpNLS2C (protein, UniProt Q99952)
chain: MSRSLDSARSFLERLEARGGREGAVLAGEFSDIQACSAAWKADGVCSTVAGSRPENVRKNRYKDVLPYDQTRVILSLLQEEGHSDYINGNFIRGVDGSLAYIATQGPLPHTLLDFWRLVWEFGVKVILMACWAQEQEPLQTGLFCITLIKEKWLNEDIMLRTLKVTFQKESRSVYQLQYMSWPDRGVPSSPDHMLAMVEEARRLQGSGPEPLCVHCSAGCGRTGVLCTVDYVRQLLLTQMIPPDFSLFDVVLKMRKQRPAAVQTEEQYRFLYHTVAQMFCSTLQNASPHYQNIKENCAPLYDDALFLRTPQALLAIPRPPGGVLRSISVPGSPGHAMADTYAVVQKRGAPAGAGSGTQTGTGTGTGARSAEEAPLYSKVTPRAQRPGAHAEDARGTLPGRVPADQSPAGSGAYEDVAGGAQTGGLGFNLRIGRPKGPRDPPAEWTRV

- binding (importin β1): no binding
- binding [3]: binds
- binding (importin β3): no binding
B3: PTPN18 (co-IP with the importin family, Fig. 3D) (protein, UniProt Q99952 1-460)
chain: MSRSLDSARSFLERLEARGGREGAVLAGEFSDIQACSAAWKADGVCSTVAGSRPENVRKNRYKDVLPYDQTRVILSLLQEEGHSDYINGNFIRGVDGSLAYIATQGPLPHTLLDFWRLVWEFGVKVILMACREIENGRKRCERYWAQEQEPLQTGLFCITLIKEKWLNEDIMLRTLKVTFQKESRSVYQLQYMSWPDRGVPSSPDHMLAMVEEARRLQGSGPEPLCVHCSAGCGRTGVLCTVDYVRQLLLTQMIPPDFSLFDVVLKMRKQRPAAVQTEEQYRFLYHTVAQMFCSTLQNASPHYQNIKENCAPLYDDALFLRTPQALLAIPRPPGGVLRSISVPGSPGHAMADTYAVVQKRGAPAGAGSGTQTGTGTGTGARSAEEAPLYSKVTPRAQRPGAHAEDARGTLPGRVPADQSPAGSGAYEDVAGGAQTGGLGFNLRIGRPKGPRDPPAEWTRV
